The record followed here is PubChem BioAssay AID651940 (Sanford-Burnham Center for Chemical Genomics, 2012).

A number of entries come with more than one value. They are shown here; other results are not.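 How the source made its calls: active means IC50 below 50 µM, and active in both the human and murine receptor assays; inactive means the rest.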 An entry can have further records. Results that share an entry repeat one measurement across runs, samples, wells, individuals or studies. A tag in brackets gives the origin of a value. Letters hold for one entry only.

This experiment addresses C-X-C chemokine receptor type 6 (Mus musculus) (UniProt Q9EQ16). Description: mouse CXCR6 receptor antagonists, SAR follow-up, selectivity assay for human CXCR6 antagonist project, cell-based, mouse ortholog, CHO-K1, luminescence (AID 651940). To be noted: CHO-K1 mCXCR6 beta-arrestin PathHunter.
Sequence of UniProt Q9EQ16 (Q9EQ16 whole entry, looked up): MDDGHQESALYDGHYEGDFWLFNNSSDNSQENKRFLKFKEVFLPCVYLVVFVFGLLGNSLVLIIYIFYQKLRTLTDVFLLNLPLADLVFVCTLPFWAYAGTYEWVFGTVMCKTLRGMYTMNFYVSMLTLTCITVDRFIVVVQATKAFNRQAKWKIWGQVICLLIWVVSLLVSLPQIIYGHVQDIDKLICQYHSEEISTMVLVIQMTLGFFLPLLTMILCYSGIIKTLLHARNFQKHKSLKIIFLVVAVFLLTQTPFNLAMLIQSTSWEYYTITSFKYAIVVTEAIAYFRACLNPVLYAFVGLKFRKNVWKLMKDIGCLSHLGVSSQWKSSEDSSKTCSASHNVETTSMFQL

With `COc1cc(C(=O)NC2CC3CCCC(C2)N3CC(=O)Nc2ccccc2Cl)cc(OC)c1OC` (stereo unspecified), the IC50 result was “inactive [sample A] and 18.2 µM [sample B]”.
